Measurements from article PMC8632923.
Results are given in words; binding and its absence hold for the method and conditions named. For part of these data: Binding seen in cells or lysates may run through a third protein. Some results given as binding are weak or reduced against the parent protein; the word gives no strength. Each block holds one substance with its values, some of them ahead of it.

Sequences of proteins named here, by UniProt entry; tags and fusion partners are left off. A change or cut given only in a name is not applied to a line headed by its entry. Residues count along the entry.
UniProt P08581, residues 25-1390: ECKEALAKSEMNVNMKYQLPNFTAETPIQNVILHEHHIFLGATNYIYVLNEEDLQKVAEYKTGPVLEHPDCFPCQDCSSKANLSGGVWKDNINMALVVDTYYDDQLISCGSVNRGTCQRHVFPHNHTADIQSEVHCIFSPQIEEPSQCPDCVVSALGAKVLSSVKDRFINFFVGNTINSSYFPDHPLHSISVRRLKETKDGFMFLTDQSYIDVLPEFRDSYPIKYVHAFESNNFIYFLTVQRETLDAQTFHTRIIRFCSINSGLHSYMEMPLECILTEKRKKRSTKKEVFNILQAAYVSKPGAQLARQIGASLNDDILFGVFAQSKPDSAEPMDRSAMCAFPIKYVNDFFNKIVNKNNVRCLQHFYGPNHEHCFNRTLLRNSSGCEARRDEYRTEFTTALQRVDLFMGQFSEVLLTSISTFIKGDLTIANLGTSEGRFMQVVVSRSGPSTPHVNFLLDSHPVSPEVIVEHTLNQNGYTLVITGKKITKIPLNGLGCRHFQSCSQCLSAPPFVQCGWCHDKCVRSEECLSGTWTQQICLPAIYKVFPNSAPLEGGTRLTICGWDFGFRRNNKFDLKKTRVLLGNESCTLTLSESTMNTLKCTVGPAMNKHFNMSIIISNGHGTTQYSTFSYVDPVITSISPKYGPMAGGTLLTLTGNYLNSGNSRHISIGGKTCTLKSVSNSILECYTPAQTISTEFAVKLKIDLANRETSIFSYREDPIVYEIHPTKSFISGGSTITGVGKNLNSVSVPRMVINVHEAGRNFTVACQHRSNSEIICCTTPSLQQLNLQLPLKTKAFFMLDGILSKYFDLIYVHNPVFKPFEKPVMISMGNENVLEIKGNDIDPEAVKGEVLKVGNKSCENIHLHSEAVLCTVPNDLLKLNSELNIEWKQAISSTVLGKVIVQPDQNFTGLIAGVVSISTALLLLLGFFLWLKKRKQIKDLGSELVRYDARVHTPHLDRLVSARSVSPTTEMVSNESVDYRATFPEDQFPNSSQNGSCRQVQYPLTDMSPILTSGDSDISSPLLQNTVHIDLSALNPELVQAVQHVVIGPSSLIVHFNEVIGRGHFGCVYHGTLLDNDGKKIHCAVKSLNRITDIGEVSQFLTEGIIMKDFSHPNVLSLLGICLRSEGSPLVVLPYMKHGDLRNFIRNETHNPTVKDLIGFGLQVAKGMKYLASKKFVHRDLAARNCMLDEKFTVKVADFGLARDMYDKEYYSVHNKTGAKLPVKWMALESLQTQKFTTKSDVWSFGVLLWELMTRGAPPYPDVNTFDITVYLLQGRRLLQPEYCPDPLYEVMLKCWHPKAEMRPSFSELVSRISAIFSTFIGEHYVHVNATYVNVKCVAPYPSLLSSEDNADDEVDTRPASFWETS
UniProt Q9Y3D6: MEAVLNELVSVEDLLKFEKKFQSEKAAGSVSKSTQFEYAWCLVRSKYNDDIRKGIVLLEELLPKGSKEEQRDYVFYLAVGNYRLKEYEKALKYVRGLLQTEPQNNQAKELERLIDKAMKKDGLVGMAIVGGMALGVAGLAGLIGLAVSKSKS
UniProt O00429: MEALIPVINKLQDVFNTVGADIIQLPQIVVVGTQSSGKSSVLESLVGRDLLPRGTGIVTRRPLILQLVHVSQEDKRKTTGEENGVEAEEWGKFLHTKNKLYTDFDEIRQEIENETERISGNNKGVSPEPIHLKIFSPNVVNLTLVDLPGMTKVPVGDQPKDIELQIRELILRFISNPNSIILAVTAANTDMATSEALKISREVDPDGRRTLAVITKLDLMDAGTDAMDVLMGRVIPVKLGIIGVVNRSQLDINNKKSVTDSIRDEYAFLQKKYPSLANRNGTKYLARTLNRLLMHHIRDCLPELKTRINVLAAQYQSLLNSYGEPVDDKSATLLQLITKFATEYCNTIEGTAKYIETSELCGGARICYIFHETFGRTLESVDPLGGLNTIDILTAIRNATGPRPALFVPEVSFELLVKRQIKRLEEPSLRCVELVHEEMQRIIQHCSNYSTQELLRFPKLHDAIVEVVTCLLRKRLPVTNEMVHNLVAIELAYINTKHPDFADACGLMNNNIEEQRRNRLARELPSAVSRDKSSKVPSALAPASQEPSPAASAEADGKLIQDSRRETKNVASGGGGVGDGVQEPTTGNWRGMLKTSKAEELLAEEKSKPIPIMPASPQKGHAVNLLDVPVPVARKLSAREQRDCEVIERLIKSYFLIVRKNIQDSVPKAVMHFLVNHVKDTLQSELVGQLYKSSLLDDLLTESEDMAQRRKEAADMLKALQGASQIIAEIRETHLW
UniProt Q9NQG6: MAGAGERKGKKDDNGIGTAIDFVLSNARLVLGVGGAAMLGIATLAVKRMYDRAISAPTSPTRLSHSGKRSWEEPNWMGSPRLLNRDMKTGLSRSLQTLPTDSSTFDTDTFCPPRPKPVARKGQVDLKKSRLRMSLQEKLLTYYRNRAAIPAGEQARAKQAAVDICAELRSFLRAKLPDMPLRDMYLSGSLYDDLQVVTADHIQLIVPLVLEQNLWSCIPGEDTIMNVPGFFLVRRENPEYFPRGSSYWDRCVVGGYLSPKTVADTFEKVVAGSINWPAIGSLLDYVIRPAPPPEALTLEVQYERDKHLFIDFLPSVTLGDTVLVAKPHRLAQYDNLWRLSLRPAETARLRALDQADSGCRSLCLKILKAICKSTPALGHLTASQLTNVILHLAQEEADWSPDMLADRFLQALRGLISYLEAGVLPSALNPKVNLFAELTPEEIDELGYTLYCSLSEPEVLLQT

Columns and labels:
exogenous Met (human) = exogenous Met (human) (UniProt P08581); test: co-IP; exogenous Met in Huh7 cells, with or without HGF (Supplementary Fig. S2f)
[1] = biological target: WT Fis1-Flag (PCDH-Fis1-Flag) (human) (UniProt Q9Y3D6); test: co-IP; Fis1−/− Huh7 cells transiently transfected with WT Fis1-Flag or Flag-tagged mutants; IP with anti-Flag antibody
[2] = biological target: Fis1-Flag Y87F (PCDH-Fis1-Flag-Y87F) (human) (UniProt Q9Y3D6); test: as above
[3] = biological target: Fis1-Flag Y38E (PCDH-Fis1-Flag-Y38E) (human) (UniProt Q9Y3D6); test: as above
[4] = biological target: Fis1-Flag Y87E (PCDH-Fis1-Flag-Y87E) (human) (UniProt Q9Y3D6); test: as above
[5] = biological target: Fis1-Flag Y38F (PCDH-Fis1-Flag-Y38F) (human) (UniProt Q9Y3D6); test: as above
[6] = biological target: Fis1 (endogenous) (human (endogenous in Huh7)) (UniProt Q9Y3D6); test: co-IP; endogenous proteins in Huh7 lysate; IP with anti-Fis1 antibody (HGF, crizotinib or ARQ-197 treated cells) or with anti-Drp1 antibody (Met knockout cells and control)
ECFP-Fis1 Y38E (human) = ECFP-Fis1 Y38E (human) (UniProt Q9Y3D6); test: FRET or BRET; sensitized emission FRET (SE-FRET) between ECFP-Fis1 and mCherry-Drp1 in transfected, fixed HeLa cells, confocal microscope; cells with or without HGF, crizotinib, ARQ-197 or SU11274
ECFP-Fis1 Y38F (human) = ECFP-Fis1 Y38F (human) (UniProt Q9Y3D6); test: as above
ECFP-Fis1 WT (human) = ECFP-Fis1 WT (human) (UniProt Q9Y3D6); test: as above
[7] = biological target: WT Fis1-Flag (PCDH-Fis1-Flag) (human) (UniProt Q9Y3D6); test: pull-down; in vitro pull-down: WT or Y38F Fis1 immunoprecipitated with Flag beads from Huh7 cell lysates, incubated with Drp1 recombinant protein, Western blot; both purified

binding (exogenous Met (human)): binds weakly
binding [1]: binds
binding [2]: binds
binding [3]: binds
binding [4]: binds
binding [5]: binds weakly
binding [6]: binds
Substance: Drp1 (endogenous) (from UniProt O00429 1-736) (enzyme)

Substance: mCherry-Drp1 (from UniProt O00429 1-736) (enzyme)
binding (ECFP-Fis1 Y38E (human)): binds
binding (ECFP-Fis1 Y38F (human)): binds weakly
binding (ECFP-Fis1 WT (human)): binds

binding [7]: binds
Substance: Drp1 recombinant protein (from UniProt O00429 1-736) (enzyme)

binding (exogenous Met (human)): no binding
Substance: Mid51 (from UniProt Q9NQG6 1-463)
